Assay [1] has as its target Cdc-like kinase 1 (endogenous Clk1) (human (endogenous in BE cells)) (UniProt P49759). The assay can be described thus: condition: only asynchronous cells (not enriched in cytokinesis); co-IP; asynchronous cells; lysate with anti-Clk antibody, protein A/G PLUS-agarose; endogenous proteins, western blot. A general note: Immunoblotting shows a protein as a band on a membrane.

The chains behind the UniProt entries cited, without tags or fusion partners.
UniProt P49759: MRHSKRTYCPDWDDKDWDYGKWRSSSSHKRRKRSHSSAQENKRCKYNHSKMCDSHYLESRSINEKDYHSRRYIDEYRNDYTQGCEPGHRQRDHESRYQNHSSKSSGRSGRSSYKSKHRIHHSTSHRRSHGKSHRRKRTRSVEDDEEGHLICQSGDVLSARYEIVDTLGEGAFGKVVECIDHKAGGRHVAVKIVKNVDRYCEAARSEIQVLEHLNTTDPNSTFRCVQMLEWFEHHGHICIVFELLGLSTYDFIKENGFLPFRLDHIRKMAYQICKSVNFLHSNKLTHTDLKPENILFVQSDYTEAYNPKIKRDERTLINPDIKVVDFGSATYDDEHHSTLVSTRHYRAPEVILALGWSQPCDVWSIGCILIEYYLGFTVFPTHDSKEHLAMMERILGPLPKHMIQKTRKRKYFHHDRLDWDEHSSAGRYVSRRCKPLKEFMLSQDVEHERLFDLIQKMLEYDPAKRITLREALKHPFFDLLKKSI
UniProt P49760: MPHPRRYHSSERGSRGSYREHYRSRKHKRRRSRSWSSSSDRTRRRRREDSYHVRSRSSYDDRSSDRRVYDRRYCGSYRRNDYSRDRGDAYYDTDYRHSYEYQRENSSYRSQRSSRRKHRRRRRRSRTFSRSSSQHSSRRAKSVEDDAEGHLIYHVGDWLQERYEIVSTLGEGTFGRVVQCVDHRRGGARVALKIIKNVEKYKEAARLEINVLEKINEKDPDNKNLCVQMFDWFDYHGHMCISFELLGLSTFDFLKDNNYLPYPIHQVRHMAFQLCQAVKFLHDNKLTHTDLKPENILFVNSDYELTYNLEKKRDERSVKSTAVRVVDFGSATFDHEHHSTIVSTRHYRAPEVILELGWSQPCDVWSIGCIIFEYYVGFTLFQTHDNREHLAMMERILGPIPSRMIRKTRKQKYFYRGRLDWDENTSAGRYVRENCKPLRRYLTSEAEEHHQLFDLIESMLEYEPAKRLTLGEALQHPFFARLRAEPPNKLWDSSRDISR
UniProt Q9HAZ1: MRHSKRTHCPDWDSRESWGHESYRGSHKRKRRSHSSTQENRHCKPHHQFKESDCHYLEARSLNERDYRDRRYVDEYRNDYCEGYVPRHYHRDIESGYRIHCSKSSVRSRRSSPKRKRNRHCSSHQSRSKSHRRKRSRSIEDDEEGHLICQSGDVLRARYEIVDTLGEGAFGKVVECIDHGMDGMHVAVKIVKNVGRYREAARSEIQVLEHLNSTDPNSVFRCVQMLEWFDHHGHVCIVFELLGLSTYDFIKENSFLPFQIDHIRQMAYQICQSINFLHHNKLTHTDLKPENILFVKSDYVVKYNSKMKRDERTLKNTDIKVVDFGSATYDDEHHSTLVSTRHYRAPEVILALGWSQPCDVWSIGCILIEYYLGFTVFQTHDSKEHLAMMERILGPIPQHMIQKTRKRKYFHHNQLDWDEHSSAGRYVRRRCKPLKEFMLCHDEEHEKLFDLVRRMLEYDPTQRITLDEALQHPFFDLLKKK
UniProt Q96GD4: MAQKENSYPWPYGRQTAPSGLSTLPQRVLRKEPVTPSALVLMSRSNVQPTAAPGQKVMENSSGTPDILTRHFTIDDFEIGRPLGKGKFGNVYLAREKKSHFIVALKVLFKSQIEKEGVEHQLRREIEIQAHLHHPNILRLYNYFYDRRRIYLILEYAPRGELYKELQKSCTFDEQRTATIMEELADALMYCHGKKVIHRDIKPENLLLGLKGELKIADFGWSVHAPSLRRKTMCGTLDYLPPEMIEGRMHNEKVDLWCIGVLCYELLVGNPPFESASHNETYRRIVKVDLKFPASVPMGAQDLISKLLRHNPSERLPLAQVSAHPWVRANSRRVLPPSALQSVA

The target of assay [2] is Cdc-like kinase 2 (endogenous Clk2) (human (endogenous in BE cells)) (UniProt P49760). The assay is described as above.
Assay [3] addresses Cdc-like kinase 4 (endogenous Clk4) (human (endogenous in BE cells)) (UniProt Q9HAZ1). The description is as above.
In assay [4] the target is Cdc-like kinase 1 (endogenous Clk1) (human (endogenous in BE cells)) (UniProt P49759). The assay can be described thus: co-IP; cytokinesis-enriched BE cells (nocodazole 16 h, release 2 h); 3-4 mg lysate with 0.5 ug anti-Clk antibody for 16 h, protein A/G PLUS-agarose 1 h at 4 °C; endogenous proteins, western blot.
Assay [5] deals with Cdc-like kinase 2 (endogenous Clk2) (human (endogenous in BE cells)) (UniProt P49760). The assay is described as above.
The target of assay [6] is Cdc-like kinase 4 (endogenous Clk4) (human (endogenous in BE cells)) (UniProt Q9HAZ1). The assay is described as above.
The target in assay [7] is WT GST-tagged Aurora B (human) (UniProt Q96GD4). The assay can be described thus: pull-down; 1 mg lysate of cytokinesis-enriched cells expressing Clk:GFP incubated with 10 ug glutathione-agarose-bound GST proteins for 6 h at 4 °C; 50 mM HEPES pH 7.5, 150 mM NaCl, 0.1% Tween 20; anti-GFP western blot; only the target purified.

Results are given in words; binding and its absence hold for the method and conditions named. Binding seen in cells or lysates may run through a third protein. Some entries that bind do so weakly or less than the wild type.

For the substance “Aurora B kinase (endogenous) (from UniProt Q96GD4 1-344) (enzyme)”, the binding entry in assay [1] is listed as “no binding”; in assay [2], “no binding”; in assay [3] it was “no binding”; in assay [4] it was “binds”; in assay [5], “binds”; in assay [6], “binds”.
Take “Cdc-like kinase 2 (endogenous Clk2) (from UniProt P49760 1-499) (enzyme)”: the binding result in assay [4] and in assay [6] was “binds” each time.
In the case of “Cdc-like kinase 4 (endogenous Clk4) (from UniProt Q9HAZ1 1-481) (enzyme)”, the binding entry in assay [4] and in assay [5] was “binds” each time.
As to “Clk1 fused to green fluorescent protein (Clk1:GFP) (from UniProt P49759 1-484) (enzyme)”, the binding entry in assay [7] was “binds”.
In the case of “Clk2 fused to GFP (Clk2:GFP) (from UniProt P49760 1-499) (enzyme)”, the binding entry in assay [7] is listed as “binds”.
Same read-out and setting: the same measure for “Clk4 fused to GFP (Clk4:GFP) (from UniProt Q9HAZ1 1-481) (enzyme)”: “binds”.

The values are drawn from article PMC4855533.
